Measured values taken from patent US20040002425A1, “Triketone derivatives and herbicides” (Idemitsu Kosan Co., Ltd., priority 1998, published 2004).
The name of at least one read-out is uncertain.

Tests used:
Echinochloa crug-galli [1] = experiment: Biological Test 2 (soaking in water/treatment on the 10th day after transplantation): weed-killing effect on barnyard grass; assay type: in vivo, Echinochloa crus-galli; conditions: Treatment performed 10 days after transplantation
Scirups juncoides [2] = experiment: Biological Test 2 (soaking in water/treatment on the 10th day after transplantation): weed-killing effect on Scirups juncoides; assay type: in vivo, Scirpus juncoides; conditions: Treatment performed 10 days after transplantation
Scirups juncoides [3] = experiment: Biological Test 1 (soaking in water/treatment on the 3rd day after transplantation): weed-killing effect on Scirups juncoides; assay type: in vivo, Scirpus juncoides; conditions: Treatment performed 3 days after transplantation
Echinochloa crug-galli [4] = experiment: Biological Test 1 (soaking in water/treatment on the 3rd day after transplantation): weed-killing effect on barnyard grass; assay type: in vivo, Echinochloa crus-galli; conditions: Treatment performed 3 days after transplantation

| Compound | Weed-killing effect, Echinochloa crug-galli (Echinochloa crug-galli [1]; dose 100 g/ha) | Weed-killing effect, Echinochloa crug-galli (Echinochloa crug-galli [1]; dose 200 g/ha) | Weed-killing effect, Scirups juncoides (Scirups juncoides [2]; dose 100 g/ha) | Weed-killing effect, Scirups juncoides (Scirups juncoides [2]; dose 200 g/ha) | Weed-killing effect, Scirups juncoides (Scirups juncoides [3]; dose 100 g/ha) | Weed-killing effect, Scirups juncoides (Scirups juncoides [3]; dose 200 g/ha) | Weed-killing effect, Echinochloa crug-galli (Echinochloa crug-galli [4]; dose 100 g/ha) | Weed-killing effect, Echinochloa crug-galli (Echinochloa crug-galli [4]; dose 200 g/ha) |
| --- | --- | --- | --- | --- | --- | --- | --- | --- |
| Cc1cccc(SC2=C(C(=O)c3ccc4c(c3Cl)CCS4(=O)=O)C(=O)CCC2)c1 [B-15, 4-chloro-5-[3-(3-methylphenyl)thio-1-oxocyclohexan-2-yl]carbonyl-2,3-dihydrobenzothiophene-1,1-dioxide] | 3 (40% or more and less than 70%) | 4 (70% or more and less than 90%) | 4 (70% or more and less than 90%) | 5 (90% or more (almost completely withered)) | 4 (70% or more and less than 90%) | 5 (90% or more (almost completely withered)) | 3 (40% or more and less than 70%) | 4 (70% or more and less than 90%) |
| Cc1ccccc1SC1=C(C(=O)c2ccc3c(c2Cl)CCS3(=O)=O)C(=O)CCC1 [B-16] | 3 (40% or more and less than 70%) | 4 (70% or more and less than 90%) | 4 (70% or more and less than 90%) | 5 (90% or more (almost completely withered)) | 4 (70% or more and less than 90%) | 5 (90% or more (almost completely withered)) | 3 (40% or more and less than 70%) | 4 (70% or more and less than 90%) |
| O=C1CCCC(Sc2ccccc2Cl)=C1C(=O)c1ccc2c(c1Cl)CCS2(=O)=O [B-17] | 3 (40% or more and less than 70%) | 4 (70% or more and less than 90%) | 4 (70% or more and less than 90%) | 5 (90% or more (almost completely withered)) | 4 (70% or more and less than 90%) | 5 (90% or more (almost completely withered)) | 3 (40% or more and less than 70%) | 4 (70% or more and less than 90%) |
| CC(C)c1ccccc1SC1=C(C(=O)c2ccc3c(c2Cl)CCS3(=O)=O)C(=O)CCC1 [B-18] | 3 (40% or more and less than 70%) | 4 (70% or more and less than 90%) | 4 (70% or more and less than 90%) | 4 (70% or more and less than 90%) | 4 (70% or more and less than 90%) | 4 (70% or more and less than 90%) | 3 (40% or more and less than 70%) | 4 (70% or more and less than 90%) |
| COC(=O)c1ccccc1SC1=C(C(=O)c2ccc3c(c2Cl)CCS3(=O)=O)C(=O)CCC1 [B-19] | 3 (40% or more and less than 70%) | 4 (70% or more and less than 90%) | 4 (70% or more and less than 90%) | 4 (70% or more and less than 90%) | 4 (70% or more and less than 90%) | 4 (70% or more and less than 90%) | 3 (40% or more and less than 70%) | 4 (70% or more and less than 90%) |
| COc1ccc(SC2=C(C(=O)c3ccc4c(c3Cl)CCS4(=O)=O)C(=O)CCC2)cc1 [B-20] | 3 (40% or more and less than 70%) | 4 (70% or more and less than 90%) | 4 (70% or more and less than 90%) | 5 (90% or more (almost completely withered)) | 4 (70% or more and less than 90%) | 5 (90% or more (almost completely withered)) | 3 (40% or more and less than 70%) | 4 (70% or more and less than 90%) |
| O=C1CCCC(Sc2ccc(Br)cc2)=C1C(=O)c1ccc2c(c1Cl)CCS2(=O)=O [B-21] | 3 (40% or more and less than 70%) | 4 (70% or more and less than 90%) | 4 (70% or more and less than 90%) | 5 (90% or more (almost completely withered)) | 4 (70% or more and less than 90%) | 5 (90% or more (almost completely withered)) | 3 (40% or more and less than 70%) | 4 (70% or more and less than 90%) |
| C=CCSC1=C(C(=O)c2ccc3c(c2Cl)CCS3(=O)=O)C(=O)CCC1 [B-22, 4-chloro-5-[3-(3-propenyl)thio-1-oxocyclohexan-2-yl]carbonyl-2,3-dihydrobenzothiophene-1,1-dioxide] | 4 (70% or more and less than 90%) | 5 (90% or more (almost completely withered)) | 5 (90% or more (almost completely withered)) | 5 (90% or more (almost completely withered)) | 5 (90% or more (almost completely withered)) | 5 (90% or more (almost completely withered)) | 4 (70% or more and less than 90%) | 5 (90% or more (almost completely withered)) |
| CC(C)(C)SC1=C(C(=O)c2ccc3c(c2Cl)CCS3(=O)=O)C(=O)CCC1 [B-23] | 4 (70% or more and less than 90%) | 5 (90% or more (almost completely withered)) | 5 (90% or more (almost completely withered)) | 5 (90% or more (almost completely withered)) | 5 (90% or more (almost completely withered)) | 5 (90% or more (almost completely withered)) | 4 (70% or more and less than 90%) | 5 (90% or more (almost completely withered)) |
| CS(=O)(=O)C1=C(C(=O)c2ccc3c(c2Cl)CCS3(=O)=O)C(=O)CCC1 [B-24] | 4 (70% or more and less than 90%) | 5 (90% or more (almost completely withered)) | 5 (90% or more (almost completely withered)) | 5 (90% or more (almost completely withered)) | 5 (90% or more (almost completely withered)) | 5 (90% or more (almost completely withered)) | 5 (90% or more (almost completely withered)) | 5 (90% or more (almost completely withered)) |
| CC1CC(=O)C(C(=O)c2ccc3c(c2Cl)CCS3(=O)=O)=C(Cl)C1 (stereo not shown) [B-25] | 4 (70% or more and less than 90%) | 5 (90% or more (almost completely withered)) | 5 (90% or more (almost completely withered)) | 5 (90% or more (almost completely withered)) | 5 (90% or more (almost completely withered)) | 5 (90% or more (almost completely withered)) | 5 (90% or more (almost completely withered)) | 5 (90% or more (almost completely withered)) |
| CC1CC(=O)C(C(=O)c2ccc3c(c2Cl)CCS3(=O)=O)=C(Sc2ccccc2)C1 (stereo not shown) [B-26] | 4 (70% or more and less than 90%) | 4 (70% or more and less than 90%) | 4 (70% or more and less than 90%) | 5 (90% or more (almost completely withered)) | 4 (70% or more and less than 90%) | 5 (90% or more (almost completely withered)) | 4 (70% or more and less than 90%) | 5 (90% or more (almost completely withered)) |
| CCS(=O)(=O)C1=C(C(=O)c2ccc3c(c2Cl)CCS3(=O)=O)C(=O)CCC1 [B-27] | 4 (70% or more and less than 90%) | 5 (90% or more (almost completely withered)) | 5 (90% or more (almost completely withered)) | 5 (90% or more (almost completely withered)) | 5 (90% or more (almost completely withered)) | 5 (90% or more (almost completely withered)) | 5 (90% or more (almost completely withered)) | 5 (90% or more (almost completely withered)) |
| CCCS(=O)(=O)C1=C(C(=O)c2ccc3c(c2Cl)CCS3(=O)=O)C(=O)CCC1 [B-28] | 4 (70% or more and less than 90%) | 4 (70% or more and less than 90%) | 4 (70% or more and less than 90%) | 5 (90% or more (almost completely withered)) | 4 (70% or more and less than 90%) | 5 (90% or more (almost completely withered)) | 4 (70% or more and less than 90%) | 5 (90% or more (almost completely withered)) |
